Laboratory results taken from article PMC5460031.
These are yes or no findings as the source states them, for the method shown. In cells and extracts the contact can be indirect. Some binding calls cover weakened binding; strength is not graded here. For part of these data: Sequences can lack the tags named with a protein. One block for each substance: values may come before it.

Protein sequences, listed by entry. Tags and fused reporters are not part of them. Lines headed by an entry give the natural chain unless they say otherwise; changes in a name come on top. Residues count along the entry.
UniProt O43734: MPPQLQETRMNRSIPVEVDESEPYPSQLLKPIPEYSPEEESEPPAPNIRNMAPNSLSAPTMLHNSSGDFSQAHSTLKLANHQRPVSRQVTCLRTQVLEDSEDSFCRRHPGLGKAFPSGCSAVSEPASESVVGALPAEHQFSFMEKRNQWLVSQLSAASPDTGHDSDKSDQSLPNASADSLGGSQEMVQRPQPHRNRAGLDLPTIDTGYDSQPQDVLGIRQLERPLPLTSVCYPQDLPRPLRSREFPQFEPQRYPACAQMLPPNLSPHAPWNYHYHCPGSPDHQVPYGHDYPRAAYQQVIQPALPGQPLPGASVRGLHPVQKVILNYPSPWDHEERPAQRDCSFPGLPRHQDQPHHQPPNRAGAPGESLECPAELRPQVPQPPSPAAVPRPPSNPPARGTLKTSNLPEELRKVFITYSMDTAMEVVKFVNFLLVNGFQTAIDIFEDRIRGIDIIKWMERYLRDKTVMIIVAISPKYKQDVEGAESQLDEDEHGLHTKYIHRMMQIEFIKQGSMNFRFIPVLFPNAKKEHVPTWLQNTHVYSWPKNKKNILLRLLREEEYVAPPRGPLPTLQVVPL
UniProt P46531: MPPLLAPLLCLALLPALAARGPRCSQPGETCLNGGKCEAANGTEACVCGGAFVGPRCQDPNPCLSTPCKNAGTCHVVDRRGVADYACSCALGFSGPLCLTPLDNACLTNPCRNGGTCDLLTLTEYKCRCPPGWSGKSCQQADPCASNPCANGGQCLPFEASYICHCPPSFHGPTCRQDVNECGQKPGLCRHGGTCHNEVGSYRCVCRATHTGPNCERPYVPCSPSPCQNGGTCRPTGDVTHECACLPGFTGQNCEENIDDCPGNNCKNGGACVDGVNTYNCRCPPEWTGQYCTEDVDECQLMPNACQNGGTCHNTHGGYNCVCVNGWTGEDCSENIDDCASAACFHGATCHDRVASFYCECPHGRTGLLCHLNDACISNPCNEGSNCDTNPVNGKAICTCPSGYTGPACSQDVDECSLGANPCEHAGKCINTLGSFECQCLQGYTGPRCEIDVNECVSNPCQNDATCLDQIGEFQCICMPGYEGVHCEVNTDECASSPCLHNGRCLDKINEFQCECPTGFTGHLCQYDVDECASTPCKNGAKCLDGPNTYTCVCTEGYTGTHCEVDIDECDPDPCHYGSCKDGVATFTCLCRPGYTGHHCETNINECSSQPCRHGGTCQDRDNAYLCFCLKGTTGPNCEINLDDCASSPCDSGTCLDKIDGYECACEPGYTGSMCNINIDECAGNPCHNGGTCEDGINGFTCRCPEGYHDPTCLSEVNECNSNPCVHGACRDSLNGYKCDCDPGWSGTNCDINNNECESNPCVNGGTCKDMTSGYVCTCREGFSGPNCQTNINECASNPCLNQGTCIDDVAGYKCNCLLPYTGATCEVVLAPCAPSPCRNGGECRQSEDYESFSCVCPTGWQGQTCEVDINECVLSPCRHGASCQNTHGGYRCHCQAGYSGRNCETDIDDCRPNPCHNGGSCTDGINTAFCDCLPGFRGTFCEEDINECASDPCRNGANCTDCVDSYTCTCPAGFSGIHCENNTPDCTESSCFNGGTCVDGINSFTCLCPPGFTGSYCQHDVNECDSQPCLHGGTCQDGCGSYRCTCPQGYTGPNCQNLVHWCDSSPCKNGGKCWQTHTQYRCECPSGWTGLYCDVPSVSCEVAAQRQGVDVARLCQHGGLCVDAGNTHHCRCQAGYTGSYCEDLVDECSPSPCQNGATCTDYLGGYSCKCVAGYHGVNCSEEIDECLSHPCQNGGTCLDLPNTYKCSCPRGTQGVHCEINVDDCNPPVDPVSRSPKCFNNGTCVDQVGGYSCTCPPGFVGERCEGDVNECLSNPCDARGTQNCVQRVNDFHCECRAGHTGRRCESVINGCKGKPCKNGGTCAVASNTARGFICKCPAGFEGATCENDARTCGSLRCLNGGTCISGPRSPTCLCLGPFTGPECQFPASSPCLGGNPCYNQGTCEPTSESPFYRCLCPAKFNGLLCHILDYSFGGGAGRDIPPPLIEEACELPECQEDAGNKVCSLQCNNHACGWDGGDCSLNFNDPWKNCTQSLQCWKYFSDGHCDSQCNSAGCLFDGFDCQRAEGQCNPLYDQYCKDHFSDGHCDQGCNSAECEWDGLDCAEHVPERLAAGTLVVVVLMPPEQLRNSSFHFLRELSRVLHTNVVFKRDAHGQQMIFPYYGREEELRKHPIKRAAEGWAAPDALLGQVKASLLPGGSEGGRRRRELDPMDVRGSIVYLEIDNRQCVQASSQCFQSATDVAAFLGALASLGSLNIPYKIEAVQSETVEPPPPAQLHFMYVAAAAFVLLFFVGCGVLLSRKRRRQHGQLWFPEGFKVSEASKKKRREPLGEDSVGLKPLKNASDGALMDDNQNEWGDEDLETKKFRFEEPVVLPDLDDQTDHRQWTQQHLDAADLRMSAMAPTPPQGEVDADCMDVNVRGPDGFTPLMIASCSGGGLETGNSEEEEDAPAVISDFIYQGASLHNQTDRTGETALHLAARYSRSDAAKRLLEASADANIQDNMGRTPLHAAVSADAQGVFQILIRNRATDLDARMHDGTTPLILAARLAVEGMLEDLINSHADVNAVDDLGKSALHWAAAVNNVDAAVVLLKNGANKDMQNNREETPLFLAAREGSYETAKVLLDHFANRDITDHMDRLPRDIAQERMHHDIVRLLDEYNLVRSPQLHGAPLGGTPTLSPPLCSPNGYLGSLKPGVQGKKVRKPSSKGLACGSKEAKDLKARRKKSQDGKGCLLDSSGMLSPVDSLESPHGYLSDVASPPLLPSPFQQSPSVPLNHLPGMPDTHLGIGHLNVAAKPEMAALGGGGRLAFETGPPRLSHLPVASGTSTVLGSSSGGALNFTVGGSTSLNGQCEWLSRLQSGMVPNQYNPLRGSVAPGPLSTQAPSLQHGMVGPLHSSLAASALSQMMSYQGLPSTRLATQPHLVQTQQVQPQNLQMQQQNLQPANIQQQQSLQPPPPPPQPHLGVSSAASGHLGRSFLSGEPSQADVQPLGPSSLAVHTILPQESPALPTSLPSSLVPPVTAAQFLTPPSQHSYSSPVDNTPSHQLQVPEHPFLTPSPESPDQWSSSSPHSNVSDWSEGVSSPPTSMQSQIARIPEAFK
FLAG-NOTCH1: residues 19-2555 of P46531
UniProt Q06330: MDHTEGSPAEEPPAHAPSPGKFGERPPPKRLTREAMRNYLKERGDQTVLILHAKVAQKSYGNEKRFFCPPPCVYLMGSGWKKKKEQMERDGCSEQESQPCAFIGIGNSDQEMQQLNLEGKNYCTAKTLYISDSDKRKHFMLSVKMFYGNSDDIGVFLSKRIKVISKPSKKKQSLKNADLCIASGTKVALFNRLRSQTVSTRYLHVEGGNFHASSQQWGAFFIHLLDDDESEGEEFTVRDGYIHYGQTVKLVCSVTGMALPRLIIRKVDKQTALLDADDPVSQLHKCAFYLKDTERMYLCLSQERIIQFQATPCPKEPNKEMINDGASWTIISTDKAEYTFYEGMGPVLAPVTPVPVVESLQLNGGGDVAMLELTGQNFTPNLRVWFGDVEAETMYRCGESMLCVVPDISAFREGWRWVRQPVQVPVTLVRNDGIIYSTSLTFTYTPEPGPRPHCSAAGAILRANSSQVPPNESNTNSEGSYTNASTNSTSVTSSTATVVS
UniProt Q01705, residues 19-2531: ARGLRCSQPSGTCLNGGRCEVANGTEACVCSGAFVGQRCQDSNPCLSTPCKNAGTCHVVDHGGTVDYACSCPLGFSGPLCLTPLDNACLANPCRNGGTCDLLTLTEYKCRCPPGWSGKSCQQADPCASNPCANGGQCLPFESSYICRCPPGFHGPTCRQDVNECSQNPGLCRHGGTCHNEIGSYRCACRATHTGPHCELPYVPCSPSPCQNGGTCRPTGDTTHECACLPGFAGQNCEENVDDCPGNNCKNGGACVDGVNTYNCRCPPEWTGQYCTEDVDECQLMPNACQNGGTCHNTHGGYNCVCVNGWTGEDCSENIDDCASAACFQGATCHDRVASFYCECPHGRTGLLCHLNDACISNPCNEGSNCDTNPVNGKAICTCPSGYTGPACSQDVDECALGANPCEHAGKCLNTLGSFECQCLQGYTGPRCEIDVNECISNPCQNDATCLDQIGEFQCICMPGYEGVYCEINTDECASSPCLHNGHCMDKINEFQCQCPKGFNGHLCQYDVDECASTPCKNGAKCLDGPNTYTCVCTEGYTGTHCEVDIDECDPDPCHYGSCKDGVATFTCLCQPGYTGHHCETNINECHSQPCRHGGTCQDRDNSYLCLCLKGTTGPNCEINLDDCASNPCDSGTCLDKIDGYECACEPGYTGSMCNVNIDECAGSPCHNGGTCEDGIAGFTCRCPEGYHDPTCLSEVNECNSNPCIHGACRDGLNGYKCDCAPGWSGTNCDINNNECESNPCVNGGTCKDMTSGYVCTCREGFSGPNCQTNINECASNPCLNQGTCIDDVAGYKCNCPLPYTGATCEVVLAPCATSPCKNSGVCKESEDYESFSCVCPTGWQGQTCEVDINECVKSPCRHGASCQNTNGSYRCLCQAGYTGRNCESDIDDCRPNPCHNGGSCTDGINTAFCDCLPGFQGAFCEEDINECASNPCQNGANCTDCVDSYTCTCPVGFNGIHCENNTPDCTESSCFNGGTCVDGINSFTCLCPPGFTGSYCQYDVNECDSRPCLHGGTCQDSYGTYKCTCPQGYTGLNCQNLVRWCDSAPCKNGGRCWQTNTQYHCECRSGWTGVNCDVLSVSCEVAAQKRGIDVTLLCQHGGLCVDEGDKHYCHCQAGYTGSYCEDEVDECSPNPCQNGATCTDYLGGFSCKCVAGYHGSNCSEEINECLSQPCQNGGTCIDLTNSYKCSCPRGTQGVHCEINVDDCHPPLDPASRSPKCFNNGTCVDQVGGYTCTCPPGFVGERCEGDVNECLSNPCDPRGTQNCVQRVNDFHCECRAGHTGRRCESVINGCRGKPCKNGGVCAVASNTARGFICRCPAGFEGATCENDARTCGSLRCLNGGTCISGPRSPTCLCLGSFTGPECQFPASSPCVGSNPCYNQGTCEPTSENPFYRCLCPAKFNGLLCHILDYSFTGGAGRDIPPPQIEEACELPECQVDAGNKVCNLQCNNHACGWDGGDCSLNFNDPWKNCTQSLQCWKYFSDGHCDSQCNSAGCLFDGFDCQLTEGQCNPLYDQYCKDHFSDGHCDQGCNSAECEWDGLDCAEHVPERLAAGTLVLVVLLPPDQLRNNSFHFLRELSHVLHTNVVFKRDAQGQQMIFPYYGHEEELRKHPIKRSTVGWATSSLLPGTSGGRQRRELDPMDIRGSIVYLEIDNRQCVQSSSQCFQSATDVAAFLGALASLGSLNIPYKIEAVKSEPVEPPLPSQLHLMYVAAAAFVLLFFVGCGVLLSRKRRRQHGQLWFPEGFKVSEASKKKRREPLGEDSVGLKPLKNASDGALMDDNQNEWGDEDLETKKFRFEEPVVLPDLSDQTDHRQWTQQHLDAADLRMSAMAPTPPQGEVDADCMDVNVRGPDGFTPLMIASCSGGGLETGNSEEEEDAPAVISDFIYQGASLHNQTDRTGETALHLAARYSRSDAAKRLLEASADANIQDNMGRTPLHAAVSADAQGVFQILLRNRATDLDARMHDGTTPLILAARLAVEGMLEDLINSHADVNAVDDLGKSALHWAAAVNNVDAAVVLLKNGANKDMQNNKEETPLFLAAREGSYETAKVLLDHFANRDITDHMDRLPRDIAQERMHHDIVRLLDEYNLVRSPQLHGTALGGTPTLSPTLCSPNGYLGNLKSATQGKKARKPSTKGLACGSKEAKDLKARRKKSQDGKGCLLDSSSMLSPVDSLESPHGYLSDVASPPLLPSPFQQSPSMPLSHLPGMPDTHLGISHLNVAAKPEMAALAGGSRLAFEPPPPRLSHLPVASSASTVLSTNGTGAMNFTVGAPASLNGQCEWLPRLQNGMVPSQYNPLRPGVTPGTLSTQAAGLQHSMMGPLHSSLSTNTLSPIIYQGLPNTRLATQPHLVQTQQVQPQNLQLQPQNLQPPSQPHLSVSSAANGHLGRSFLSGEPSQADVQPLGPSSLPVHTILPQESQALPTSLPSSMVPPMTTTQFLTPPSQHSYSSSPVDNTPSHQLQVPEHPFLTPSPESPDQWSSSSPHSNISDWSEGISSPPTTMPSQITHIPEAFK

Assays:
[1] = target: T1, Act1 (endogenous, mouse OPCs) (mouse (endogenous in OPCs)) (UniProt Q8N7N6); assay: co-IP; wild-type mouse OPCs co-cultured with Act1 KO astrocytes, stimulated with IL-17 (50 ng ml^−1) for the indicated times; lysates immunoprecipitated with anti-Act1 antibody; immunoblot
T1 sequence: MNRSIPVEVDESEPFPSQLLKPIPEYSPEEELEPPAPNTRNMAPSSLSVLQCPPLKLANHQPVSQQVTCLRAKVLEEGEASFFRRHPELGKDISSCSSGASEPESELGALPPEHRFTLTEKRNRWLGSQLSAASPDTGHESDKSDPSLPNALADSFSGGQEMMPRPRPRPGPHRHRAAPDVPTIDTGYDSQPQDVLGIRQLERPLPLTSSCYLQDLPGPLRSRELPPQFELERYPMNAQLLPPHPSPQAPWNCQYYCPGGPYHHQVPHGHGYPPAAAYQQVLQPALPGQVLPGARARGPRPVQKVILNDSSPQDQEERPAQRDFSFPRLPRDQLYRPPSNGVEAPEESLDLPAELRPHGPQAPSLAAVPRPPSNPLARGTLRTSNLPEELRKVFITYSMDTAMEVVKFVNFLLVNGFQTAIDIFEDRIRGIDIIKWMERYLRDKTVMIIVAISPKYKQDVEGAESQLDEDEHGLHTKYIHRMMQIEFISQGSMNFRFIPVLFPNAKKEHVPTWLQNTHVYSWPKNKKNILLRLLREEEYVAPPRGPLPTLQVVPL

[2] = target: T2, FLAG-tagged IL-17RA (human) (UniProt Q96F46); assay: co-IP; HEK293 cells transfected with tagged constructs; lysis buffer with 0.5% Triton X-100, 20 mM HEPES pH 7.4, 150 mM NaCl; 1 μg antibody and A-Sepharose beads at 4 °C overnight; immunoblot
T2 sequence: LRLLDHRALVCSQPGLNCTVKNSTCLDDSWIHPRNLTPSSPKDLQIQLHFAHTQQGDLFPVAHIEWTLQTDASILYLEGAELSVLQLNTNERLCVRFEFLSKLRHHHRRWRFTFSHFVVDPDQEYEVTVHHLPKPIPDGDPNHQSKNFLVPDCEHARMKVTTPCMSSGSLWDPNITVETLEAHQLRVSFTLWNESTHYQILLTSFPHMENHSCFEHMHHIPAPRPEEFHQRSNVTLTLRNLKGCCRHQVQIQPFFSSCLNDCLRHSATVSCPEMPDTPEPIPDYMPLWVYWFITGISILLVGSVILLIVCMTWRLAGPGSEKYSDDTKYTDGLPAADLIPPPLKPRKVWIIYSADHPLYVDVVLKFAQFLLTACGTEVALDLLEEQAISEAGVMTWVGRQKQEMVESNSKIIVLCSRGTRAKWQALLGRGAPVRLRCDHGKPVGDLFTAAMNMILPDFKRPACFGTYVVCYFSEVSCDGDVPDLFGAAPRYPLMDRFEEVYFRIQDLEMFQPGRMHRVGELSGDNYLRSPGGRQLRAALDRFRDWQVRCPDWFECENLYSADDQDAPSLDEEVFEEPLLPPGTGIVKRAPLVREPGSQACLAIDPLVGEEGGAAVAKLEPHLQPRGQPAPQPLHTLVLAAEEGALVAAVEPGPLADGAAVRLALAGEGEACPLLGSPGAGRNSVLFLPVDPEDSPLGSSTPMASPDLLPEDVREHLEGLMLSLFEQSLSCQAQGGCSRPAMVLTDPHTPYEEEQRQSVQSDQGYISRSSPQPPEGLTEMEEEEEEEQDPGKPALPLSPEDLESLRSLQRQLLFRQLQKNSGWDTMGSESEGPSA

[3] = target: T3, FLAG-tagged IL-17RA Δ33–320 (human) (UniProt Q96F46); assay: as above
T3 sequence: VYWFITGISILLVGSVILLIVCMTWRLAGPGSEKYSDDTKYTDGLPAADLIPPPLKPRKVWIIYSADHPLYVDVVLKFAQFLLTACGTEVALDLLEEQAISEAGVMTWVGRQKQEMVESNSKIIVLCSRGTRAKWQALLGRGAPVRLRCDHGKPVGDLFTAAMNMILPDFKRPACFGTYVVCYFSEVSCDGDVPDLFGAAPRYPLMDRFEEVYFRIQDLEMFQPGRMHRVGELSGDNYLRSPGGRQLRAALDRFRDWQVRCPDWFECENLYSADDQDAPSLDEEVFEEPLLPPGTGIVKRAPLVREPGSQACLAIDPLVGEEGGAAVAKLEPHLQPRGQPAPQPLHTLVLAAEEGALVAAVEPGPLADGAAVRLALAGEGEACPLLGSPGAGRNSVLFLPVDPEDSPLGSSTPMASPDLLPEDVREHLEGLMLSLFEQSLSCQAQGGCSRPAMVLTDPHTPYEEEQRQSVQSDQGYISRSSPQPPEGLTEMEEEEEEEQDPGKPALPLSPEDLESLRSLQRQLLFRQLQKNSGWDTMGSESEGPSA

[4] = target: T4, V5-IL-17RA (human) (UniProt Q96F46); assay: as above
T4 sequence: T2 sequence

[5] = target: HA–Act1 (human) (UniProt O43734); assay: as above
[6] = target: FLAG-NOTCH1 (human) (UniProt P46531); assay: as above
[7] = target: RBP-J (endogenous, HEK293 cells) (human (endogenous in HEK293)) (UniProt Q06330); assay: as above
[8] = target: FLAG-NOTCH1 (human) (UniProt P46531); assay: proximity ligation; in situ PLA (Duolink In Situ Red) in transfected, fixed HeLa cells; rabbit anti-FLAG with mouse anti-HA or mouse anti-V5

binding [1]: binds
Substance: NOTCH1 (endogenous, mouse OPCs) (from UniProt Q01705 19-2531) (receptor)

binding [1]: binds
Substance: RBP-J (endogenous, mouse OPC co-culture) (from UniProt P31266 1-526)

binding [2]: binds | binding [3]: no binding | binding [4]: binds | binding [5]: no binding
Substance: GFP–NECD1 (from UniProt P46531 19-1735) (domain or fragment)

binding [6]: binds | binding [7]: binds | binding [8]: binds
Substance: HA–Act1 (from UniProt O43734 1-574)
